# Lines with a small IC50 respond at low doses; where the fit passes the top or lowest dose, that dose stands as a limit. AUC, from the same fit, is the share of area under the viability curve across the 256-fold dose range; values near 1 show little effect. A top dose marked as inferred comes from the curve model; the source does not state it.
# Compound: N.N.[Cl][Pt][Cl] [Cisplatin]
# Experiment: Viability of human cancer cell lines after 72 h of drug (GDSC screen)
# Details: top dose inferred
# Protocol: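 Human cancer cell lines in 384-well plates, medium with 10% serum, drug for 72 h over a 256-fold dose range (nine 2-fold or five 4-fold steps up to the top dose). Adherent lines were fixed and stained with the nucleic acid dye Syto60, suspension lines read with resazurin; signal relative to control wells, capped at 0 and 100%. One two-parameter sigmoid per drug and line, fitted in a mixed model over all curves with the slope shared within a line.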
Cell Line,AUC,IC50
"Becker (glioma, adherent, top dose 10 µM)",0.894,> 10 µM
"BxPC-3 (pancreas, adherent, top dose 10 µM)",0.837,7.84 µM
"C2BBe1 (large intestine, adherent, top dose 10 µM)",0.881,> 10 µM
"C3A (liver, adherent, top dose 10 µM)",0.984,> 10 µM
"C32 (melanoma, adherent, top dose 10 µM)",0.817,6.05 µM
"C-4-I (cervix, adherent, top dose 10 µM)",0.889,> 10 µM
"C-33-A (cervix, adherent, top dose 10 µM)",0.775,3.98 µM
"CA46 (Burkitt lymphoma, suspension, top dose 10 µM)",0.972,> 10 µM
"CADO-ES1 (Ewing sarcoma, suspension, top dose 10 µM)",0.851,7.84 µM
"CAKI-1 (kidney, adherent, top dose 10 µM)",0.815,9.5 µM
"CAL-12T (non-small cell lung carcinoma, adherent, top dose 10 µM)",0.981,> 10 µM
"CAL-27 (head and neck, adherent, top dose 10 µM)",0.813,5.51 µM
"CAL-29 (bladder, adherent, top dose 10 µM)",0.847,8.27 µM
"CAL-33 (head and neck, adherent, top dose 10 µM)",0.831,6.33 µM
"CAL-39 (cervix, adherent, top dose 10 µM)",0.926,> 10 µM
"CAL-51 (breast, adherent, top dose 10 µM)",0.883,8.22 µM
"CAL-62 (thyroid, adherent, top dose 10 µM)",0.921,> 10 µM
"CAL-72 (osteosarcoma, adherent, top dose 10 µM)",0.909,> 10 µM
"CAL-78 (chondrosarcoma, adherent, top dose 10 µM)",0.895,> 10 µM
"CAL-85-1 (breast, adherent, top dose 10 µM)",0.945,> 10 µM
"CAL-120 (breast, adherent, top dose 10 µM)",0.939,> 10 µM

Cell Line,AUC,IC50
"CAPAN-1 (pancreas, adherent, top dose 10 µM)",0.812,6.11 µM
"CAS-1 (glioma, adherent, top dose 10 µM)",0.952,> 10 µM
"CCF-STTG1 (glioma, adherent, top dose 10 µM)",0.925,> 10 µM
"CCK-81 (large intestine, adherent, top dose 10 µM)",0.99,> 10 µM
"CCRF-CEM (lymphoblastic leukaemia, suspension, top dose 10 µM)",0.808,4.19 µM
"CESS (acute myeloid leukaemia, suspension, top dose 10 µM)",0.948,> 10 µM
"CFPAC-1 (pancreas, adherent, top dose 10 µM)",0.925,> 10 µM
"CGTH-W-1 (thyroid, adherent, top dose 10 µM)",0.683,2.02 µM
"CHL-1 (melanoma, adherent, top dose 10 µM)",0.848,6.78 µM
"CHP-126 (neuroblastoma, suspension, top dose 10 µM)",0.843,7.36 µM
"CHP-212 (neuroblastoma, adherent, top dose 10 µM)",0.806,4.61 µM
"CHSA0011 (chondrosarcoma, adherent, top dose 10 µM)",0.943,> 10 µM
"CHSA0108 (chondrosarcoma, adherent, top dose 6 µM)",0.892,> 6 µM
"CHSA8926 (chondrosarcoma, adherent, top dose 10 µM)",0.845,> 10 µM
"CL-11 (large intestine, adherent, top dose 10 µM)",0.955,> 10 µM
"CL-34 (large intestine, adherent, top dose 6 µM)",0.98,> 6 µM
"CL-40 (large intestine, adherent, top dose 10 µM)",0.972,> 10 µM
"CMK (acute myeloid leukaemia, suspension, top dose 10 µM)",0.877,7.47 µM
"CML-T1 (chronic myeloid leukaemia, suspension, top dose 10 µM)",0.882,7.52 µM
"COLO-205 (large intestine, suspension, top dose 10 µM)",0.976,> 10 µM
"COLO-320-HSR (large intestine, suspension, top dose 10 µM)",0.93,> 10 µM

Cell Line,AUC,IC50
"COLO-668 (small cell lung carcinoma, adherent, top dose 10 µM)",0.956,> 10 µM
"COLO-678 (large intestine, semi-adherent, top dose 10 µM)",0.975,> 10 µM
"COLO-679 (melanoma, adherent, top dose 10 µM)",0.87,> 10 µM
"COLO-680N (oesophagus, adherent, top dose 10 µM)",0.943,> 10 µM
"COLO-684 (endometrium, suspension, top dose 10 µM)",0.961,> 10 µM
"COLO-783 (melanoma, adherent, top dose 10 µM)",0.945,> 10 µM
"COLO-800 (melanoma, adherent, top dose 10 µM)",0.902,> 10 µM
"COLO-824 (breast, adherent, top dose 10 µM)",0.986,> 10 µM
"COR-L23 (large cell lung carcinoma, adherent, top dose 10 µM)",0.816,5.35 µM
"COR-L88 (small cell lung carcinoma, adherent, top dose 10 µM)",0.981,> 10 µM
"COR-L95 (small cell lung carcinoma, adherent, top dose 10 µM)",0.914,> 10 µM
"COR-L279 (small cell lung carcinoma, suspension, top dose 10 µM)",0.81,4.58 µM
"COR-L321 (lung, suspension, top dose 10 µM)",0.984,> 10 µM
"CP50-MEL-B (melanoma, adherent, top dose 10 µM)",0.959,> 10 µM
"CP66-MEL (melanoma, adherent, top dose 10 µM)",0.937,> 10 µM
"CPC-N (small cell lung carcinoma, suspension, top dose 10 µM)",0.905,> 10 µM
"CRO-AP2 (B-cell lymphoma, suspension, top dose 10 µM)",0.711,2.24 µM
"CS1 (bone, adherent, top dose 10 µM)",0.765,4.08 µM
"CTB-1 (B-cell lymphoma, suspension, top dose 10 µM)",0.834,> 10 µM
"CTV-1 (acute myeloid leukaemia, suspension, top dose 10 µM)",0.844,5.17 µM
"CW-2 (large intestine, adherent, top dose 10 µM)",0.92,> 10 µM

Cell Line,AUC,IC50
"Ca9-22 (head and neck, adherent, top dose 10 µM)",0.874,8.5 µM
"Ca-Ski (cervix, adherent, top dose 10 µM)",0.734,3.18 µM
"CaR-1 (large intestine, adherent, top dose 10 µM)",0.978,> 10 µM
"Calu-3 (lung adenocarcinoma, adherent, top dose 10 µM)",0.977,> 10 µM
"Calu-6 (lung adenocarcinoma, adherent, top dose 10 µM)",0.951,> 10 µM
"Caov-4 (ovary, adherent, top dose 10 µM)",0.924,> 10 µM
"Capan-2 (pancreas, adherent, top dose 10 µM)",0.964,> 10 µM
"D-247MG (glioma, adherent, top dose 10 µM)",0.847,> 10 µM
"D-263MG (glioma, adherent, top dose 10 µM)",0.84,9.06 µM
"D-283MED (medulloblastoma, adherent, top dose 10 µM)",0.811,4.75 µM
"D-336MG (glioma, adherent, top dose 10 µM)",0.915,> 10 µM
"D-392MG (glioma, adherent, top dose 10 µM)",0.874,> 10 µM
"D-423MG (glioma, adherent, top dose 10 µM)",0.877,> 10 µM
"D-502MG (glioma, adherent, top dose 10 µM)",0.916,> 10 µM
"D-542MG (glioma, adherent, top dose 10 µM)",0.926,> 10 µM
"D-566MG (glioma, adherent, top dose 10 µM)",0.765,3.61 µM
"DAN-G (pancreas, adherent, top dose 10 µM)",0.972,> 10 µM
"DB (B-cell lymphoma, suspension, top dose 10 µM)",0.908,> 10 µM
"DBTRG-05MG (glioma, adherent, top dose 10 µM)",0.898,> 10 µM

# Reference: the supplement of paper PMC4967469
